Sequences with one replicate were seen in a single cluster, so their values are uncertain.
system: ATP; assay: switch fluorescence ratio, 500 uM ATP over buffer (Cy3 cluster intensity, sum of 5 cycles each) (fold (ratio)); higher = stronger signal-on switching upon ATP binding; sequences stand for … in TCGTCGGCAGCGTCAGATGTGTATAAGAGACAGTTTTTTTTTTTTTTTTTTTTTTTTT…TC; settings: aptamer strand: ATP DNA aptamer (quencher-CACCTGGGGGAGTATTGCGGAGGAAGG + anchor), 100 nM annealed; ATP concentration: 500 uM; one replicate
Outline: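 Per cluster, summed Cy3 intensity from the target cycles was divided by that from the buffer cycles to give the fluorescence ratio, then averaged per switch-domain sequence. Clusters outside 100-1000 RFU were excluded. The Cy3-labelled switching-strand clusters, on a modified Illumina MiSeq flow-cell, were annealed to 100 nM quencher-labelled ATP aptamer and imaged in selection buffer, then after 15 min with 500 uM ATP at 22 °C, for five cycles with NaOH stripping and re-annealing between them.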
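Also: ATP exposure 15 min at 22 °C before imaging.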

Sequence	switch fluorescence ratio
ACTATCGGGG	1.01
ACTATCGTGT	1.05
ACTATGCTGC	1.16
ACTATGGGT	1.01
ACTATTCACA	1.13
ACTATTGTTG	1.01
ACTCAGGC	1.08
ACTCCACACT	1.7
ACTCCCGTAT	1.28
ACTCCGTTTT	2.07
ACTCGAAT	1.04
ACTCGACATA	1.19
ACTCGAGCG	1.02
ACTCGGGTCA	1.02
ACTCGGGTCG	1.14
ACTCGGTCCA	1.02
ACTCGTGCAA	4.66
ACTCGTGTTG	0.983
ACTCTAGCGC	1.2
ACTCTCACAA	1.69
ACTCTCCTGT	1.06
ACTCTCTAT	1.02
ACTCTGGGAA	1.15
ACTCTGTCAA	6.32
ACTCTTCTCG	1.04
ACTCTTGTGC	1

Sequence	switch fluorescence ratio
ACTCTTTTTG	1.02
ACTGAAGAGG	1.01
ACTGAATGCG	1.04
ACTGACAGTT	1.13
ACTGATAAGG	1.03
ACTGATCTGG	1.02
ACTGCCGCTT	1.25
ACTGCTTAAT	1.06
ACTGCTTGAA	1.02
ACTGGATAAG	0.957
ACTGGATTAC	1.19
ACTGGCACTG	1.1
ACTGGCGCCG	1.03
ACTGGCTATA	1.17
ACTGGGCCGC	1.07
ACTGGGGGCA	0.968
ACTGGGTGTT	1.11
ACTGGTCGCT	1.03
ACTGGTCTAT	0.971
ACTGGTTTGA	0.985
ACTGTAGCTG	1.12
ACTGTCAC	1.43
ACTGTCACTA	1.14
ACTGTGGGAG	1.15
ACTGTGGTCG	1.04
ACTGTGTCTG	1.02

Sequence	switch fluorescence ratio
ACTTACATGT	1.22
ACTTACGTTG	1.29
ACTTATTCGC	1.06
ACTTCACCAA	1.33
ACTTCAGTTT	0.991
ACTTCCCTCT	1.16
ACTTCGGGTC	1.03
ACTTCGGTCA	1.05
ACTTCGGTGT	1.02
ACTTCTTCTC	1.03
ACTTGAGCG	1.08
ACTTGATAAC	1.02
ACTTGCAATT	1.73
ACTTGCCAAG	0.943
ACTTGCGTGA	1.04
ACTTGCTTGC	1.06
ACTTGGAAGA	1.01
ACTTGGGCG	1.01
ACTTGTGCCA	0.965
ACTTGTTGCC	1.04
ACTTTATCAT	1.06
ACTTTCATTG	1.13
ACTTTCCTGG	1.09
ACTTTGTGA	1.05
ACTTTTATGT	1.03
ACTTTTGTAA	1

Sequence	switch fluorescence ratio
AGAAAAACTT	0.986
AGAAAACTCT	0.997
AGAAAATTGA	0.971
AGAAACCAAA	1.04
AGAAACCCAA	1.05
AGAAACGAGA	0.931
AGAAACGGTG	1.17
AGAAAGACAG	1.03
AGAAAGGGAT	1
AGAAATCCCT	1.04
AGAAATCTGA	1.09
AGAAATGGCT	0.988
AGAACAGAGA	0.985
AGAACAGCCT	1.09
AGAACAGGGC	1.05
AGAACGGGTG	1.11
AGAACTCACT	1.03
AGAAGAGGCG	0.944
AGAAGATTCC	1.15
AGAAGATTTG	1
AGAAGCAAAC	2.85
AGAAGCATC	0.989
AGAAGGGGTG	0.993
